The supplement of paper PMC3334620
In all, about 33,000 sequences were measured (“E-score (-0.5 to 0.5)”: median about -0.035, highest 2% from about 0.34 on). Some of the results follow.

These sequences were tested against T1, Mot3 (UniProt P54785) (assay: PBM E-score (8-mer binding enrichment) (E-score (-0.5 to 0.5)); higher = stronger / more preferred TF binding; most listed sequences are background and not binding sites). Conditions: protein concentration: 200 nM; construct: GST-full length.
T1 sequence: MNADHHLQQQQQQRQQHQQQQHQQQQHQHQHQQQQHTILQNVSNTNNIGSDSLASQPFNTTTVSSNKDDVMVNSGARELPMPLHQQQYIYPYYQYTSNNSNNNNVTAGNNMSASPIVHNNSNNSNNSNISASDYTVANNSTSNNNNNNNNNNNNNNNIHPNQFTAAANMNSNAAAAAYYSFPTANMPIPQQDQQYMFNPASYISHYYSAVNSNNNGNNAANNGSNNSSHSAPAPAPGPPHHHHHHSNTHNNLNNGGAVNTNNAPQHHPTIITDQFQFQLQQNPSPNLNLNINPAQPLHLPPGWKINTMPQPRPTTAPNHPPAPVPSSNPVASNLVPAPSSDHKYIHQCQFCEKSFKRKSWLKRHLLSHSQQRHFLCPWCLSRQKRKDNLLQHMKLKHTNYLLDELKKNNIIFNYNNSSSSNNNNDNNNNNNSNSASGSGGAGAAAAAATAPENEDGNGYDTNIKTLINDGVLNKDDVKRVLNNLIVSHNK
Procedure, shortened: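 Masliner-normalised scans of fluorescent anti-GST signal were the basis for scoring. That signal came from GST-tagged yeast transcription factors applied at about 100-200 nM to double-stranded universal all-10-mer Agilent arrays on fresh or once-stripped slides. Each ungapped eight-base word, pooled with its reverse complement, received an E-score from the Universal PBM Analysis Suite.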

| Sequence | PBM E-score |
| --- | --- |
| ACCGCGAG | -0.123 |
| TTAGTAAA | 0.203 |
| GACTAGCC | -0.329 |
| CGGAACCA | -0.115 |
| CGGCCCAA | -0.303 |
| ATTGATGA | -0.0832 |
| AATAAGCT | 0.0276 |
| ACCACCAT | -0.0985 |
| GCCCTTTA | -0.0408 |
| GCTTGTTA | 0.179 |
| CGTCTTGC | 0.0394 |
| GATTTAAA | -0.0352 |
| GCCATTAC | 0.063 |
| CAGGCCCC | 0.176 |
| CATTCCGG | -0.148 |
| CCAATATA | 0.0238 |
| ACCTATCG | 0.0731 |
| ATGGCTTA | -0.105 |
| TTCACGAA | -0.117 |
| ACAAGGGG | 0.0989 |
| TACTTTAA | 0.0488 |
| AGGGCTTC | -0.0325 |
| ATCAAGAT | -0.0533 |
| GGCCGATA | -0.236 |
| CAGCAATA | 0.0493 |

| Sequence | PBM E-score |
| --- | --- |
| CCCCAGTC | -0.311 |
| AAGCTAGG | -0.0844 |
| GCTATAGC | -0.235 |
| CCGGGCGC | -0.421 |
| CATGAAAG | -0.0275 |
| CATACGGA | -0.163 |
| AGCGAGGA | -0.254 |
| ATGTGTTC | 0.152 |
| GCTGCAAC | -0.242 |
| GCGCAAAC | -0.123 |
| AGGGCAAA | -0.0247 |
| GTTAGGAA | 0.188 |
| TCCGGAAA | -0.0958 |
| CGCACCCG | -0.155 |
| TCGACGAA | -0.0651 |
| GCCAGCAC | -0.245 |
| TAGACGCA | -0.0723 |
| ACTTAAAC | 0.139 |
| CAACTACC | -0.02 |
| CGAGCGCA | -0.027 |
| ATGCCCGC | -0.288 |
| CACATGAG | 0.0156 |
| AAATATAA | 0.199 |
| CCACGAGG | -0.226 |
| CTGTCCAC | 0.0862 |

| Sequence | PBM E-score |
| --- | --- |
| ACTACAGC | 0.0561 |
| AGGACGGA | -0.374 |
| GCATAATA | 0.162 |
| AAGCAGGG | -0.24 |
| AAACCGAG | -0.269 |
| ATGACACG | 0.384 |
| AGCGTCGC | -0.0658 |
| CCGGGCGA | -0.0692 |
| CACTAAAC | 0.154 |
| AAACGGCG | -0.159 |
| AGTGTAAT | 0.308 |
| ACAATTTG | 0.0354 |
| AAACTGTA | 0.0863 |
| GGTGGGGA | -0.00724 |
| GGCTCAAC | 0.113 |
| AGCGGGTA | 0.0718 |
| TGTGCAAA | 0.179 |
| CATATCTA | 0.0779 |
| CCGAAATC | -0.193 |
| CCCTTACG | 0.0156 |
| CGTCTTAC | 4e-05 |
| AGTACAAT | 0.136 |
| AGACTTGA | 0.0807 |
| GCATGCGC | 0.0867 |
| CGTCTCCC | -0.142 |

| Sequence | PBM E-score |
| --- | --- |
| AACACGCA | 0.326 |
| TGTTGGAA | 0.271 |
| CATGCCCC | -0.0877 |
| ATCGCAGG | 0.141 |
| AGCAGATC | 0.0097 |
| ATATTTGC | 0.222 |
| GAGCGTGC | -0.0522 |
| GGGCAGAA | -0.0232 |
| AGACGCAA | 0.0655 |
| GCAGAGGC | -0.26 |
| AAATAACG | 0.19 |
| ATCGCCTG | -0.148 |
| CGGGCGAG | -0.138 |
| CTCGTAGC | -0.168 |
| ATCTGTTC | 0.0556 |
| GGATTCTA | 0.0172 |
| CACTTTAG | -0.0286 |
| ATTGAGAC | -0.134 |
| GGATGTAA | 0.295 |
| CGTCCACA | -0.116 |
| CTCTCATC | -0.198 |
| CCCGGATA | -0.224 |
| CCGCCGCA | -0.0458 |
| CGGATCAA | 0.0823 |
| TAGTCTGA | -0.122 |

| Sequence | PBM E-score |
| --- | --- |
| AGCGGAGC | -0.232 |
| GGGCGTTA | 0.212 |
| GTCCGACA | 0.0717 |
| CGGACACC | -0.186 |
| GTCCCATA | -0.173 |
| CAGGAGGG | -0.159 |
| GGCAAATA | 0.314 |
| CATCGGGA | -0.224 |
| ATGATTTA | 0.124 |
| ACACCGAC | 0.0305 |
| ATCGACGG | -0.121 |
| GACCCTCC | -0.239 |
| TCAACGCA | 0.235 |
| GGAACACC | 0.0643 |
| AGAACTAA | 0.0172 |
| GCAACCAA | -0.013 |
| CTTCCCAC | -0.0498 |
| CCATTCGA | -0.016 |
| CGTAGAGC | 0.112 |
| GACGGTGA | -0.24 |
| ACGGGTTC | -0.0953 |
| ACCCTAAT | 0.00619 |
| AAGATGTA | 0.194 |
| CATAATTA | 0.229 |
| CTCCGAGC | -0.0251 |

| Sequence | PBM E-score |
| --- | --- |
| TAAGACAA | 0.106 |
| GGCTCTAC | -0.144 |
| CAGCGAAC | -0.179 |
| GGAGGCAA | 0.437 |
| AGGTCGAG | -0.141 |
| GTGTCCCA | -0.183 |
| ATCAGGGG | -0.35 |
| AGAAGGGC | -0.0481 |
| GGCACATA | 0.281 |
| GCGCAATA | -0.134 |
| GGGCTGAA | 0.0021 |
| ATCGATTC | -0.187 |
| CGTTGCCA | -0.0814 |
| CGTGGACC | -0.307 |
| AGTTTTTC | 0.186 |
| AACGCAGA | -0.00078 |
| ATCGGCTG | -0.355 |
| CACACACG | 0.159 |
| AGAGATAA | -0.0375 |
| AATTTCAA | 0.0311 |
| ACAAACCT | -0.0491 |
| CTCGTAAC | -0.0177 |
| GTAAGAAC | 0.234 |
| ATATAAGG | 0.0652 |
| TATCACGA | -0.05 |

| Sequence | PBM E-score |
| --- | --- |
| CCATCAGG | -0.179 |
| ACGTCGCA | -0.15 |
| ACTGGGCA | -0.0747 |
| GTAATATA | 0.275 |
| CGGGCACG | 0.263 |
| AACCTTCT | -0.121 |
| CCGCTAGG | -0.0259 |
| CACCACAA | -0.0277 |
| GTATGCTA | -0.0526 |
| CCGGGAAC | -0.191 |
| ATTCTTAA | 0.0836 |
| CAGCACTC | -0.12 |
| ATCGGGTC | -0.22 |
| CGTCTTTA | 0.00398 |
| ACCCCTTC | 0.129 |
| CATCGCCG | 0.0056 |
| CCACCGGC | -0.353 |
| GATTTTGC | 0.0889 |
| GCGACACC | -0.167 |
| CCCTTGCC | 0.0298 |
| GGCGAGGA | -0.241 |
| AGGATAGG | -0.127 |
